In publication PMC12820563:
Some of the results follow. The list includes weakly bound sequences.

molecular target: T1, MBP-FoxP3dN (UniProt Q99JB6); assay: PD-seq (MBP pull-down with sequencing); details: 20 mM Tris-HCl pH 7.5, 100 mM NaCl, 1.5 mM MgCl2, 0.4 uM protein, 0.1 uM dsDNA library, 30 min, room temperature, amylose pull-down; high values mean tight binding; double strand, one strand shown
T1 sequence: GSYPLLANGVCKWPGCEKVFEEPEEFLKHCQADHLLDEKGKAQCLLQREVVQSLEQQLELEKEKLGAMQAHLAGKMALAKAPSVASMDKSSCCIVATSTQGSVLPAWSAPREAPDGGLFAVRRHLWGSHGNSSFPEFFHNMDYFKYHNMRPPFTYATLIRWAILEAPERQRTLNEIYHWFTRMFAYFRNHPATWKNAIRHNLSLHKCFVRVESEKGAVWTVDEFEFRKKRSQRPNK

Sequence | binding signal (RPM ratio (pull-down/input))
GATGATTGTTCTCCCAGCTGATGAATTGATTTGCTCGAGTAAACAAATTTTCCTAATCTTTCTGTTCAAGCGCCATCTAC | 2.62
GATGATTGTTCTCCCAGCTGATGAATTGTTGGGATCGAGTAAACAAATTTTCCTAATCTTTCTGTTCAAGCGCCATCTAC | 1.92
GATGATTGTTCTCCCAGCTGATGAATTGTCCCTGTCGAGTAAACAAATTTTCCTAATCTTTCTGTTCAAGCGCCATCTAC | 0.319
GATGATTGTTCTCCCAGCTGATGAATTTGAATCGTCGAGTAAACAAATTTTCCTAATCTTTCTGTTCAAGCGCCATCTAC | 0.521
GATGATTGTTCTCCCAGCTGATGAATTCTTACGCTCGAGTAAACAAATTTTCCTAATCTTTCTGTTCAAGCGCCATCTAC | 0.256
GATGATTGTTCTCCCAGCTGATGAATTGGGCTTCTCGAGTAAACAAATTTTCCTAATCTTTCTGTTCAAGCGCCATCTAC | 1.57
GATGATTGTTCTCCCAGCTGATGAATTCGATTAGTCGAGTAAACAAATTTTCCTAATCTTTCTGTTCAAGCGCCATCTAC | 1.76
GATGATTGTTCTCCCAGCTGATGAATTGGCCAAGTCGAGTAAACAAATTTTCCTAATCTTTCTGTTCAAGCGCCATCTAC | 0.214
GATGATTGTTCTCCCAGCTGATGAATTTGTGCGATCGAGTAAACAAATTTTCCTAATCTTTCTGTTCAAGCGCCATCTAC | 1.1
GATGATTGTTCTCCCAGCTGATGAATTGAACCAATCGAGTAAACAAATTTTCCTAATCTTTCTGTTCAAGCGCCATCTAC | 0.376
GATGATTGTTCTCCCAGCTGATGAATTTGTTCGCTCGAGTAAACAAATTTTCCTAATCTTTCTGTTCAAGCGCCATCTAC | 2.28
GATGATTGTTCTCCCAGCTGATGAATTAACGTTGTCGAGTAAACAAATTTTCCTAATCTTTCTGTTCAAGCGCCATCTAC | 0.634
GATGATTGTTCTCCCAGCTGATGAATTCCGGATATCGAGTAAACAAATTTTCCTAATCTTTCTGTTCAAGCGCCATCTAC | 0.335
GATGATTGTTCTCCCAGCTGATGAATTAGGGTACTCGAGTAAACAAATTTTCCTAATCTTTCTGTTCAAGCGCCATCTAC | 0.74
GATGATTGTTCTCCCAGCTGATGAATTGCGGCCTTCGAGTAAACAAATTTTCCTAATCTTTCTGTTCAAGCGCCATCTAC | 2.8
GATGATTGTTCTCCCAGCTGATGAATTGCTGCCTTCGAGTAAACAAATTTTCCTAATCTTTCTGTTCAAGCGCCATCTAC | 2.8
GATGATTGTTCTCCCAGCTGATGAATTAGACACCTCGAGTAAACAAATTTTCCTAATCTTTCTGTTCAAGCGCCATCTAC | 0.547
GATGATTGTTCTCCCAGCTGATGAATTATGACCCTCGAGTAAACAAATTTTCCTAATCTTTCTGTTCAAGCGCCATCTAC | 0.578
